In article PMC12136788:
The list shows a part of the results.

B1: chr10:123166816:123166917:+|3pUTR|ENSG00000154473|unk|total|mutant (ssRNA)
RNA: GGGAGUUCUACAGUCCGACGAUCAAAAACUUAAAGGUAUAUCCGCAGGUCCGCCUUUGUUCUGUGGGAGAUCCAGGCCUUGUCCGAAGGACCAAGGCCAGAAUGCCCAGUUCCGCCUCCGCAUUCAAACCCUUCAUUGUUUUUCAACAGAGGAUUGAGCAUCA
B2: chr12:52170242:52170446:-|3pUTR|ENSG00000167767|msi1|FALSE|unique (ssRNA)
RNA: GGGAGUUCUACAGUCCGACGAUCUGGCCCUCCCCUCCUUGGCAUUCAUGGGGGAGCCCAGGAACCCCCCACACCUAUGGGGUUAGAGCUCCUCCUUUCUUCUCACUCCUUCCCCUUCCUCCCUCCAUGCCCACUCCCCCUGCCCAACAGAGGAUUGAGCAUCA
B3: chr5:115137525:115137627:-|CDS|ENSG00000152503|unk|total|mutant (ssRNA)
RNA: GGGAGUUCUACAGUCCGACGAUCUUCCGCAGAAGAGGCUAUUCUUUGUUUUAUCUCCGUGUAAUGGAGAUACUGUUUUUUCUCCGUGUAAUGGAGAGAGGGCUAAAGAAGAAGCAAUUACACAUUUUGAAAAGCUCUUUGAAGCAACAGAGGAUUGAGCAUCA
B4: ENSG00000075856:stop:overlap|stop_codon|ENSG00000075856|stop_codon|NA|stop_codon (ssRNA)
RNA: GGGAGUUCUACAGUCCGACGAUCGCAGCGGGCAUCUUCCAGUCUUUCAGGUCCUCGGGUCCCCAUGUCCUGGCCCGCCUCCCUAGUCCUCGGCGGCGAUAAAGCCGCCAAGGCUGCAAACCCGCUUUUCGUGACAGUAGCUCCCAACAGAGGAUUGAGCAUCA
B5: chr10:73251842:73251943:-|CDS|ENSG00000182180|msi1|total|mutant (ssRNA)
RNA: GGGAGUUCUACAGUCCGACGAUCUCGGCCGUUCUACCGCAUUGUGGCUGCUCACAACAAGUGUCCCAGGGAUGGCCGUUUCGCCGAGCAGCUGGGCUCCUAUGAUCCAUUGCCCAACAGUCAUGGAGAAAAACUCGUUGCCCUCAACAGAGGAUUGAGCAUCA
B6: chr16:3727831:3727932:-|CDS|ENSG00000005339|unk|total|mutant (ssRNA)
RNA: GGGAGUUCUACAGUCCGACGAUCCGUCUCACCCCAGACUGGUUCCCCCCACCCCGGACUCGCAGUCACCAUGGCCAGCUCCACCGAUCAGGGACACUUGGGGAACCCCGAACAGAGUGCAAUGCUCCCCCAGCUGAACACCCCCAACAGAGGAUUGAGCAUCA
B7: ENSG00000107863:be:win_2851|CDS|ENSG00000107863|bound_else_gene|NA|bound_elsewhere_windowed (ssRNA)
RNA: GGGAGUUCUACAGUCCGACGAUCGUUGGUGGAAGUAUUCGGCCAUGGAAACAGAUGUAUGUUGUCCUUCGGGGUCAUUCACUUUACCUGUACAAAGAUAAAAGAGAGCAGACGACUCCGUCUGAGGAAGAGCAGCCCAUCAGUCAACAGAGGAUUGAGCAUCA
B8: ENSG00000107863:be:win_3551|CDS|ENSG00000107863|bound_else_gene|NA|bound_elsewhere_windowed (ssRNA)
RNA: GGGAGUUCUACAGUCCGACGAUCGAGUUCCUGGAAAUAAUGCAGCCAUCUCAAGUAUGCAAGAAGAACUCAACAAGGGAAUGGCUGAUAUUGAUAUACAAGAUGAUAAAUGGCGAGAUUUGAAUGUGAUAAGCAGUUUACUAACAACAGAGGAUUGAGCAUCA
B9: ENSG00000107863:be:win_5751|CDS|ENSG00000107863|bound_else_gene|NA|bound_elsewhere_windowed (ssRNA)
RNA: GGGAGUUCUACAGUCCGACGAUCACCUGACCAAAUAAACGGAGAAAGCUUCCAGAACGUGAGCAAAAAUGCUAGUUCUGCAGCGAAUGCCCAACCUCAUAAACUGUCUGAAACCCCAGGCAGUAAAGCAGAGUUUCAUCCCUGCAACAGAGGAUUGAGCAUCA
B10: chr4:174259701:174259819:-|CDS|ENSG00000164117|unk|total|mutant (ssRNA)
RNA: GGGAGUUCUACAGUCCGACGAUCAAAUCCACUUGGGGUCACUGUUCCAUAUACAAUAAGAACCCACCUUCCGGAUUUUCUUUCCGAAAAUUGUAUAUGCAGCUGGAUGAAGGCAGCCUCACCUUUAAUGCCAACCCAGAUGAGCAACAGAGGAUUGAGCAUCA
B11: chr11:123942869:123943838:-|CDS|ENSG00000181499|control|control|control (ssRNA)
RNA: GGGAGUUCUACAGUCCGACGAUCCCGCUAUGAGACCCUGAUGAAUGGCCAUGUCUGUUCCCAACUAGUGCUGGCCUCCUGGCUAGCUGGAUUCCUCUGGGUCCUUUGCCCCACUGUCCUCAUGGCCAGCCUGCCUUUCUGUGGCAACAGAGGAUUGAGCAUCA
B12: chr5:136976780:136976881:-|3pUTR|ENSG00000152377|msi1|total|mutant (ssRNA)
RNA: GGGAGUUCUACAGUCCGACGAUCCUUAAAUCCGCAUGUUCCAAUCCAGUCGGCAUUGCCUGAAUACAGCCGCAUCAUACCUACCGUUGGUCUCCGAUAAGAAAUGAACUACUUGAUACCGCAAAGUCCUUUGGCUUCGUAAAUCAACAGAGGAUUGAGCAUCA
B13: chr6:52498635:52498743:-|3pUTR|ENSG00000065308|msi1|total|mutant (ssRNA)
RNA: GGGAGUUCUACAGUCCGACGAUCAAAGGGACACGGAUUGUGACAGUUUCACCCCAUUUGUUUCUAACCCCGCUGCCCAGGAUCCGGGUCUGUGGUGUGUUCUGUUUUGUUUUUGGUUUCUCCCUUGUGUCAGUUCUCUUCUGGCAACAGAGGAUUGAGCAUCA
B14: ENSG00000101574:stop:overlap|stop_codon|ENSG00000101574|stop_codon|NA|stop_codon (ssRNA)
RNA: GGGAGUUCUACAGUCCGACGAUCAUCAAGCCAGAUGGGGAAUAUUUGGAGUUGUUUGCUCGAAAUUUACAGCCAGGUUGGACUAGUUGGGGCAAUGAAGUUCUCAAAUUUCAGCAUGUGGAUUAUUUUAUUGCUGUGGAGUCUCAACAGAGGAUUGAGCAUCA

Biological target: MSI1 full-length (mouse, UniProt Q61474 1-362)
Chain of UniProt Q61474 (Q61474 whole entry): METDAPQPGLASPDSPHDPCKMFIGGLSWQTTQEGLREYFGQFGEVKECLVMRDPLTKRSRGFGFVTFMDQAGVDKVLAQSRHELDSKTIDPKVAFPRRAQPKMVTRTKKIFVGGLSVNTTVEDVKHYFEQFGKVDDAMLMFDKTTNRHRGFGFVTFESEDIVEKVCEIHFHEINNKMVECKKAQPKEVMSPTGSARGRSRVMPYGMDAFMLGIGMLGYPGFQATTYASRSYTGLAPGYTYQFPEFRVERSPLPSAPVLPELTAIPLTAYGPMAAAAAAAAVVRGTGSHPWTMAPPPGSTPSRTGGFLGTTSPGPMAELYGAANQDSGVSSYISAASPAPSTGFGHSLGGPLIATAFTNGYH
Assay: nsRBNS (natural sequence RNA bind-n-seq); RBNS binding buffer (assumed for nsRBNS): 25 mM Tris pH 7.5, 150 mM KCl, 3 mM MgCl2, 0.01% Triton X-100, 500 ug/ml BSA, 20 U/ml SUPERase-In, 4 C; UNK is unkempt and MSI1 is Musashi-1; names of the RNAs are library labels; protein concentration not given here; high values mean tight binding

Which binding signal does the source give for B1 here?
Its binding signal is 0.272 enrichment R.

With B2 as the binder, how does the binding signal read?
The binding signal was 1.08 enrichment R.

Which binding signal does the source give for B3 here?
Its binding signal is 0.258 enrichment R.

How did the binding signal turn out when B4 was run?
The binding signal was 0.223 enrichment R.

With B5 as the binder, how does the binding signal read?
Its binding signal is 0.313 enrichment R.

Which binding signal does the source give for B6 here?
Its binding signal is 0.522 enrichment R.

B7 was tested. Which binding signal did it give?
The binding signal was 0.427 enrichment R.

B8 was tested. Which binding signal did it give?
Its binding signal is 0.7 enrichment R.

B9 was tested. Which binding signal did it give?
The binding signal was 0.256 enrichment R.

Which binding signal does the source give for B10 here?
Its binding signal is 0.29 enrichment R.

B11 was tested. Which binding signal did it give?
Its binding signal is 0.477 enrichment R.

B12 was tested. Which binding signal did it give?
The binding signal was 0.478 enrichment R.

Which binding signal does the source give for B13 here?
Its binding signal is 0.496 enrichment R.

B14 was tested. Which binding signal did it give?
The binding signal was 0.382 enrichment R.
